These results are taken from publication PMC10726135.

The list shows a part of the results. At the low end of the ranking the order means little. The protein was read in a cell extract, so binding may be indirect.

For this assay, the target named is T1, HNF4alpha2 (COS-7 nuclear extract) (UniProt P41235).
T1 sequence: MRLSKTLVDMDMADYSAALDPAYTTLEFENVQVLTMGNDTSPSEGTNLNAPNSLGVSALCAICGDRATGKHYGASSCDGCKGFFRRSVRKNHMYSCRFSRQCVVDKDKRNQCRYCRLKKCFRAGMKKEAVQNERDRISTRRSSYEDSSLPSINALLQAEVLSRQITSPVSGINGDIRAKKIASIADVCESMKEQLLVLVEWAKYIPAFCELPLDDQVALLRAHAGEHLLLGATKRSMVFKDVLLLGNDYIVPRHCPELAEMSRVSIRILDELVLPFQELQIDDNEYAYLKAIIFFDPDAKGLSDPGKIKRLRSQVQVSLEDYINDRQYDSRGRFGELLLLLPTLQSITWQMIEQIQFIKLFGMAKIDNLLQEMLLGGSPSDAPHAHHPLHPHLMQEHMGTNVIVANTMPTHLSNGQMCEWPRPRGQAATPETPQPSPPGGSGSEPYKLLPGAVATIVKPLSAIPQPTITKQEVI
Description: protein-binding microarray. The conditions noted are these: COS-7 nuclear extract on double-stranded Agilent 4x180k PBM; binding buffer, salt, pH and temperature not given; high values mean tight binding; double strand, one strand shown; sequences stand for … in …GCCTAGGGAGATTAGAGTATCGGTCGA
With GAAGATCGCAGACTTTGGACTCTGCAAGGA, the binding signal (log2 normalized intensity) was 5.8. For CTTTAGATTCTTACAGGCAATTGATAATGA, the binding signal (log2 normalized intensity) worked out at 0.99.

Regarding TTTTCTGCTGCATGCCACACATTGCTGCCA, the binding signal (log2 normalized intensity) is -1.06. As to CAGGCATTAACCCTTTAGTGCCTGGATCTT, the binding signal (log2 normalized intensity) was 0.932.

As to TCGTCCAGTTACTGAAAGGGAACCCTAATC, the binding signal (log2 normalized intensity) was -0.95. Take GAGCAGGGAGCGAGACGCTGAGCTTCTGCG: the binding signal (log2 normalized intensity) was -1.21. The same measure for GGACTTTGGTCTGCTGAGTCTCATGATTAG: 4.48; for GGCCTCCAGAAGGAATGCAGCCCTGCCACT: -1.14.

In the case of GGCATGCATATGAGTAATGTGAAGACTTCG, the binding signal (log2 normalized intensity) was determined as 0.707. The same measure for TTTGAACTGTGTTGCAAATTATTACTCCCA: 1.03; for CTTTGGCCAAATAATAGCATTGTAGTAATA: 1.59. The value for AGTTTCCCTTGATCAAAAACTGCCTAAATC was -0.795; that for ATGTGTTTGCTTTTTACCATCTCCAACATG was 0.607; that for GAGCAGTCCTGCACATGAATGATCAAAGGT was 1.54. TAAATACTTCTCCTCTTATCTTCAGGTTTG: the binding signal (log2 normalized intensity) worked out at 1.45. TACCGGCTAGACAAACAGCTTCTGTCCTAA: the binding signal (log2 normalized intensity) was -1.25. For the sequence AGGGCAAAGGTCACCAGCTAAGCTGTTACT, the binding signal (log2 normalized intensity) was 5.12.

On to ACAGTCCAGTGACTATCTGCTACTTAAGAT, for which the binding signal (log2 normalized intensity) is -0.769. The same measure for GTGGGAGGTGAGGAAAACGGAGACAGAAAC: -1.1; for GGGGTGGGGACCAGTGGGGGGAAGCTCTGT: -1.04. The value for GGGAGCTCCCTCTGTTGGTGGCACAGGGAA was -0.739; that for ATGGAGAGTGGAAGACTGCACCAAAATAAA was -1.18; that for TCATCTGAACTCTGACCAACGCCTCCCTCC was 2.23. The same measure for TGGTGTGAACCAGGGTTAAGGTTTTGTAAC: 1.72; for AGCTTGGCCAAAGTACGCTCCACCCCTCAG: 3.28. In the case of TAAGAGTGAACTCTGACCATGCCTATAAAT, the binding signal (log2 normalized intensity) amounted to 1.4.

Take GGTGATTGGTGAGTCTTAGGGAGGGGCCAG: the binding signal (log2 normalized intensity) was -1.07. The value for ATCTCTCCTAGAGAAAGGGGCTTAGGGAGG was -1.3; that for AGCAGGGCGTGGACTTCGCTCCGCCGCTAG was 3.59; that for CCTGTGGGGGAGGTGCAGAGAGGGGCAGGG was -0.725. The value for TGACCACGGGGGCCGCTCTCCCTCCAGGCC was -1.21. In the case of GTCAGATTTTATTTACACACAGGGAGATGG, the binding signal (log2 normalized intensity) was -0.199. Consider AAAGTGCAACTACAAGGAGCAGCCTAGTAA, for which the binding signal (log2 normalized intensity) was -1.27.

As for GAGTGGTGACTGAAGTCCAACCCTCCGTTT, the binding signal (log2 normalized intensity) came out at 1.06.

For TTTCCCTGCCAGTTCCATGTAATCCCATGC, the binding signal (log2 normalized intensity) worked out at 0.376. For GCCTTGCTTATCTGGGAGGGGGAGGTTTTG, the binding signal (log2 normalized intensity) amounted to 0.199.

For the sequence AATAGTAAAGTATGTTTGTGCTGGTTACTA, the binding signal (log2 normalized intensity) amounted to 0.471. The same measure for GGTCGGGCGCGCGGGCCGGGAGGGGGACGC: -1.1.

On to AAAAGCAGCCATTAAGAAGCAAGTGTTTAA, for which the binding signal (log2 normalized intensity) is -0.6. Consider GCACTATTATCCCCCTATCCCAAGACATCA, for which the binding signal (log2 normalized intensity) came out at 4.49.

Take TTTGTCACTGCAAATGATGTCTCTCATTGG: the binding signal (log2 normalized intensity) is 1. Turning to CCAGCCCACTTACCACCCACAGAGGGGGTT, the binding signal (log2 normalized intensity) was -1.08. With AATAAAGGAACTTACGAAGATAAATCAGAA, the binding signal (log2 normalized intensity) was -0.825. As for CCCATTAGAACAAAGATCAAAGCAGTATCA, the binding signal (log2 normalized intensity) was -1.08. For the sequence AAGAAGAGCTCAGTCACAGCAGTGGACTTT, the binding signal (log2 normalized intensity) is 6.61. The same measure for CAAGGTACAGAGAGTTTAAGTAACTTCTCA: -1.16; for TGAAGGTGAATTTCAAGAATCTAATCAGGC: -1.08; for GACTGGGTGAGGAAGGGTATGCATGGAATG: 0.726. The value for CGGTGTATGCTCTCAGTGCTAACACGTGGC was 0.692. For TTTGCCCTCAAGGAGTTTTAGATTAGGAGA, the binding signal (log2 normalized intensity) was -0.121. The same measure for GCCTGAGCATCTTATCAGCAGGAGACCTGA: -1.04; for AGCATCTTATCAGCAGGAGACCTGAAACTA: -0.954; for CACTTTCCACTCTCTACTGATATGTCCTCC: 1.93. The value for GCTGCCATCCCACATTCCACAGACTCACTT was -0.8; that for TTGAGTGGTTTACTGCGTCACAAGTCACAA was -1.09. The value for GTATTAACATGTAAATATGACCTTTGCTTT was 6.44. GCAGATGGGCAGCACTGTGATTTGTTCAGG: the binding signal (log2 normalized intensity) turned out to be 0.439. The same measure for AGAGCCGGGAAAGGCCGGAGGGCGGGGCGG: -0.0652; for AGAGGACAGAAGAAGGAAAAGGCCTGACCT: -0.388; for AGTGAACTCAAAGAAAAGTTATGTTGGGCA: 1.17. On to ATTTTCTCACTCTAAAGGAAGGGATTATAA, for which the binding signal (log2 normalized intensity) was 0.856. The same measure for TAACTTGAGTGTGCACCCTGGTCTCTCTTA: 0.266; for TTCTGTCTTTTTAATAGTGCATTATCAGTA: 1.74.

On to CTAGCCACAGGGGAAACACAGACTCCAAAG, for which the binding signal (log2 normalized intensity) is -1.06. The value for CTACTTTTAAAACGCTCAAATAAGCCTTGC was -1.11; that for GGACTGAACAGATATTGGCCAAAGGGCACA was 2.95.

For the sequence GTCTATGTGTGCTTTCTTCATTAACTCTTG, the binding signal (log2 normalized intensity) came to 1.03. Consider TGCGGCTTCTCATACTACTGTACTTTGCTC, for which the binding signal (log2 normalized intensity) came out at 5.39.

As to ATACTTTGCTCTCCAAATTGGGGCCAACAG, the binding signal (log2 normalized intensity) was 0.369.

Take GAGCATTTCTCTCCTAAGCAGGACAGCAGA: the binding signal (log2 normalized intensity) is -1.06. With TCAGCCCACAGGTCAATCCAGGTTGCTGCC, the binding signal (log2 normalized intensity) was -0.646. Turning to CAGCATCTTCACCGTAAAGCCACCCCTTTC, the binding signal (log2 normalized intensity) turned out to be 2.64.

As for GAACAATGTCTAATGGTGGAATTTCAGTCA, the binding signal (log2 normalized intensity) stood at 0.935.
